Test results: article PMC4336329 (PLoS ONE, 2015)
Out of some 310,000 compounds screened, about 14,000 (4.5%) showed an effect of 50% or more. The effect is printed as a negative number. This is one part of the list.

biological target: human ether-à-go-go-related gene (hERG) potassium channel (human, UniProt Q12809); assay: primary screen, population patch clamp on CHO cells stably expressing hERG
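Also: peak tail current of the secondary pulse compared with the same well before compound.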

Sequence of human ether-à-go-go-related gene (hERG) potassium channel (Q12809 whole entry, looked up): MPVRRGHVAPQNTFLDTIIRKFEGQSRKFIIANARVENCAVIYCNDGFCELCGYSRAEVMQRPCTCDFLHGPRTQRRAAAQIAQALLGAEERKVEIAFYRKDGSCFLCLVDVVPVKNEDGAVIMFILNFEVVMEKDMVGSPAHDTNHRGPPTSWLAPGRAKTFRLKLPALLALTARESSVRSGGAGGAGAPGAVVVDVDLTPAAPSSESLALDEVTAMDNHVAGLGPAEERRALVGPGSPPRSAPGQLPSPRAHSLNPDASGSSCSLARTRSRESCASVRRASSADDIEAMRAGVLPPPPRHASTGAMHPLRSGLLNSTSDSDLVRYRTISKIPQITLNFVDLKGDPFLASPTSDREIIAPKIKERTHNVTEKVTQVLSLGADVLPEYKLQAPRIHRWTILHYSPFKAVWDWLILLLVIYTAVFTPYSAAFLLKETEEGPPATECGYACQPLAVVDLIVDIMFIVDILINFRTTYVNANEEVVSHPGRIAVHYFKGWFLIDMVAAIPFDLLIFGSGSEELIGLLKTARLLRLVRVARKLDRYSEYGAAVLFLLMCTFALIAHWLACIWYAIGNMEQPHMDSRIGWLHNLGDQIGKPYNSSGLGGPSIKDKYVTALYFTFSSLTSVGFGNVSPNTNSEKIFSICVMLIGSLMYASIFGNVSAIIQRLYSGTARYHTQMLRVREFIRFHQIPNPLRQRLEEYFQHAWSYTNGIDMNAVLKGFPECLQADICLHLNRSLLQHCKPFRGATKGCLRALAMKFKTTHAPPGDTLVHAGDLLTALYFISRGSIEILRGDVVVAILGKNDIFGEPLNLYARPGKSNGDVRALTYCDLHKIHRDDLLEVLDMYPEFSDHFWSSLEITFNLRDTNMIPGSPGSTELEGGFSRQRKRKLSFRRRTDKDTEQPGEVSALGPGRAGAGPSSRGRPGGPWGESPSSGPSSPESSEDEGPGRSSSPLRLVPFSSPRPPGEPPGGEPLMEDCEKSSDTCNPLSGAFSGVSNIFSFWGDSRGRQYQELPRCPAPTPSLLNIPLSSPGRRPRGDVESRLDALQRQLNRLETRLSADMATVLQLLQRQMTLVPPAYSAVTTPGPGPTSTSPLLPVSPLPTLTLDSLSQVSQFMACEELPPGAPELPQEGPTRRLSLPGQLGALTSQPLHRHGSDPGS

Going from `CC1CCCC(C)N1C(=O)Cc1ccccc1` (stereo not shown) to `Br.CC1CCN(CC(=O)c2ccccc2Cl)CC1`, the “hERG current change (%, negative = inhibition) at 10uM” value rises from -12.1% to 12.3%.

Going from `CCN1CCN(C(=O)CCn2c(=O)c3cccn3c3cccnc32)CC1` to `Cn1c(SCC(=O)N2CCN(Cc3ccccc3)CC2)nnc1-c1ccncc1`, the “hERG current change (%, negative = inhibition) at 10uM” value falls from 1.82% to -2.39%.

Compared with `CCOC(=O)/C=C1\CC(=O)Nc2nonc2N1`, `CCOC(=O)c1c(C)[nH]c(C2=NNC(=Nc3ccc(OCC)cc3)SC2)c1C` is higher in “hERG current change (%, negative = inhibition) at 10uM” value: -6.52% for the first, 20% for the second.

Going from `CC1(C)CC(=O)C(N=Nc2cc(Cl)c(Cl)c(Cl)c2)=C(O)C1` to `COc1cc(NC(=O)c2onc(C)c2Cl)cc(OC)c1OC`, the “hERG current change (%, negative = inhibition) at 10uM” value rises from 8.16% to 11.3%.

Going from `O=c1c2ccccc2oc2ccc(C#CC3(O)CCCCC3)cc12` to `CC(Sc1ccccc1)C(=O)NCC(c1ccco1)N1CCCCC1` (stereo not shown), the “hERG current change (%, negative = inhibition) at 10uM” value falls from 0.05% to -9.36%.

First: Cc1ccc(-c2noc(CN(C)C(=O)c3ccc(Br)o3)n2)cc1
Second: CCOC(=O)c1ccc(NC(=O)CSc2nc(N)c(NC(=O)c3ccc(Br)o3)c(=O)[nH]2)cc1
The “hERG current change (%, negative = inhibition) at 10uM” value of the first is lower: -18.7% for the first, 15.2% for the second.

Going from `COc1cccc(Nc2nc3ccccc3nc2-n2nc(C)cc2C)c1` to `COc1ccc(C(=O)Nc2ccc(S(=O)(=O)Nc3cc(C)nc(C)n3)cc2)cc1`, the “hERG current change (%, negative = inhibition) at 10uM” value rises from 18.5% to 20.2%.

Going from `COc1ccc(N(C(C)=O)S(=O)(=O)c2cccc3cccnc23)cc1` to `COc1ccc(S(=O)(=O)N(C)CC(=O)Nc2ccccc2OC)cc1`, the “hERG current change (%, negative = inhibition) at 10uM” value falls from -4.27% to -15.8%.

First: O=C(Cc1ccc(-n2c(=O)[nH]c3ccccc3c2=O)cc1)N1CCN(c2ccccc2)CC1
Second: Cc1ccc(C(=O)Nc2ccc(N3CCN(C(=O)c4ccco4)CC3)cc2)cc1
The “hERG current change (%, negative = inhibition) at 10uM” value of the first is lower: 5.63% for the first, 10.4% for the second.

Going from `CCOc1ccccc1C1C(C(=O)Nc2ccccc2OC)=C(C)Nc2nnnn21` (stereo not shown) to `COc1ccccc1CCC(=O)OC(C)C(=O)Nc1c(C)n(C)n(-c2ccccc2)c1=O` (stereo not shown), the “hERG current change (%, negative = inhibition) at 10uM” value rises from 4.75% to 10.7%.

First: Cc1ccc(OCC(=O)N2CCN(S(=O)(=O)c3ccc(Cl)s3)CC2)cc1C
Second: COc1ccc2[nH]c(C(=O)N3CCN(C)CC3)c(C)c2c1
The “hERG current change (%, negative = inhibition) at 10uM” value of the first is lower: 3.16% for the first, 10.4% for the second.

Compared with `Cc1onc(-c2ccccc2Cl)c1C(=O)OCC(=O)c1ccc2c(c1)OCCO2`, `Cc1nn(C)cc1S(=O)(=O)Nc1ccc2c(c1)OCCO2` is higher in “hERG current change (%, negative = inhibition) at 10uM” value: 7.3% for the first, 12.9% for the second.

First: CCn1nc(NC(=O)c2ccncc2)c2cc3cc(C)ccc3nc21
Second: Cc1ccc(C)c(NC(=S)N(CCc2ccncc2)C(C)C)c1
The “hERG current change (%, negative = inhibition) at 10uM” value of the first is higher: 8.22% for the first, -42.1% for the second.

Going from `CC(C)NS(=O)(=O)c1ccc(NC(=O)NC2CCCCC2)cc1` to `Cc1ccc(S(=O)(=O)N2CCC(C(=O)NC3CCCCC3C)CC2)cc1` (stereo not shown), the “hERG current change (%, negative = inhibition) at 10uM” value rises from 1.79% to 5.96%.

Going from `CN(CCC#N)C(=O)CC(Cc1ccccc1)C1CCOC(C)(C)C1` (stereo not shown) to `Cc1ccc2c(c1)N(C(C)C(=O)NCCc1ccccc1)C(=O)CO2` (stereo not shown), the “hERG current change (%, negative = inhibition) at 10uM” value rises from 3.94% to 7.21%.

First: COc1cc(OC)cc(C(=O)NCC2CCCN(C(=O)c3csc(C)n3)C2)c1 (stereo not shown)
Second: CCCCc1nc2cc(C(=O)N3CCCCC3C(=O)OC)ccc2o1 (stereo not shown)
The “hERG current change (%, negative = inhibition) at 10uM” value of the first is higher: 10.4% for the first, -3.84% for the second.

First: CC(=O)c1c(C)[nH]c(C(=O)CN2C(=O)NC(C)(c3ccc4c(c3)OCO4)C2=O)c1C (stereo not shown)
Second: Cc1ccc2nc(-c3ccc(NC(=O)CN4C(=O)NC(C)(c5ccc(OC(F)F)cc5)C4=O)cc3)sc2c1 (stereo not shown)
The “hERG current change (%, negative = inhibition) at 10uM” value of the first is lower: 2.4% for the first, 12.4% for the second.

Compared with `CCCC(=O)NC(c1ccc(OCC)cc1)c1ccc(OC)c(OC)c1` (stereo not shown), `CCC(C)c1ccc(NC(=S)Nc2ccc(OC)cc2C)cc1` (stereo not shown) is lower in “hERG current change (%, negative = inhibition) at 10uM” value: -5.42% for the first, -9.65% for the second.

First: O=C(CSc1nc2cc(Cl)ccc2s1)N1CCCc2ccccc21
Second: Cc1cccc(N2CCN(C(=O)CCc3nc4ccccc4[nH]3)CC2C)c1 (stereo not shown)
The “hERG current change (%, negative = inhibition) at 10uM” value of the first is higher: -5.54% for the first, -29.4% for the second.

First: COc1ccc(CCN=c2c([N+](=O)[O-])nn(-c3cccc(C)c3)n2O)cc1OC
Second: COc1ccc(-c2nc(CSCC(=O)NCC3CCCO3)c(C)o2)cc1OC (stereo not shown)
The “hERG current change (%, negative = inhibition) at 10uM” value of the first is lower: -34.1% for the first, -8.6% for the second.

Going from `O=C1CCc2cc(S(=O)(=O)Nc3ccc(F)cc3)cc3c2N1CC3` to `O=S(=O)(Nc1ccc(Oc2ncccn2)c(Cl)c1)c1ccc(F)cc1`, the “hERG current change (%, negative = inhibition) at 10uM” value rises from -0.534% to 2.03%.

Going from `Cc1csc(NC(=O)CCc2ccc(S(=O)(=O)N3CCOCC3)cc2)n1` to `CC(NCC(=O)Nc1cc(S(=O)(=O)N2CCCCCC2)ccc1Cl)c1ccccc1.O=C(O)C(=O)O` (stereo not shown), the “hERG current change (%, negative = inhibition) at 10uM” value rises from -9.05% to -8.39%.

Going from `O=C(Nc1ccc(S(=O)(=O)O)cc1)c1ccc2c(c1)S(=O)(=O)c1ccccc1C2=O` to `CC(=O)NS(=O)(=O)c1ccc(NC(=O)C(Sc2ccccc2)c2ccccc2)cc1` (stereo not shown), the “hERG current change (%, negative = inhibition) at 10uM” value falls from 16.1% to 8.87%.

Going from `O=C(COC(=O)c1ccc(-c2ccc([N+](=O)[O-])cc2)o1)NC(=O)NC12CC3CC(CC(C3)C1)C2` to `O=C(COC(=O)CSc1ccc(F)cc1)NNC(=O)c1ccc([N+](=O)[O-])cc1`, the “hERG current change (%, negative = inhibition) at 10uM” value falls from 1.93% to -30.2%.

Compared with `CCCNCc1cc(OC)c(OCC(=O)Nc2ccccc2)cc1Br.Cl`, `CCc1cccc2c(C(=O)C(NCCOC)c3ccccc3)c[nH]c12` (stereo not shown) is higher in “hERG current change (%, negative = inhibition) at 10uM” value: -46.4% for the first, 5.96% for the second.

First: O=C(/C=C/c1ccc(Cl)cc1Cl)NCCSCc1ccccc1
Second: O=C(NCCCSc1ccccc1)c1cnc(Cl)c(Cl)c1
The “hERG current change (%, negative = inhibition) at 10uM” value of the first is higher: 18.3% for the first, 4.09% for the second.

Going from `COC(=O)CCC(=O)OC1(C)C(=O)C2=CN(CC(C)C)C(c3ccc(OC)cc3)=CC2=C(Br)C1=O` (stereo not shown) to `CCN(CC)CCCN1C(=O)C(O)=C(C(=O)c2ccco2)C1c1ccc(OC(C)C)cc1` (stereo not shown), the “hERG current change (%, negative = inhibition) at 10uM” value rises from -8.17% to 1.11%.

First: Cc1ccc(Cl)cc1Nc1nc(-c2sc(NC(=O)C(C)(C)C)nc2C)cs1
Second: Cc1cccc(OCc2nnc(SCC(=O)Nc3ncc(C)s3)o2)c1
The “hERG current change (%, negative = inhibition) at 10uM” value of the first is lower: -14.4% for the first, 31.5% for the second.

Going from `COc1ccc(N2CCN(C(=O)c3ccc(N(C)S(=O)(=O)c4ccc(C)cc4)cc3)CC2)cc1` to `COC(=O)c1ccc(C)c(NC(=O)c2ccc(CN3CCc4ccccc4C3)cc2)c1`, the “hERG current change (%, negative = inhibition) at 10uM” value rises from -45.8% to 6.57%.

Compared with `S=C(Nc1ccc(N2CCOCC2)cc1)Nc1ccc2nc(-c3ccco3)c(-c3ccco3)nc2c1`, `COc1ccc(NC(=O)CN2CCN(CC(=O)Nc3ccc(F)cc3)CC2)c(OC)c1` is lower in “hERG current change (%, negative = inhibition) at 10uM” value: 15.8% for the first, -80.4% for the second.

Going from `O=c1[nH]c(SCCOc2cccc3ccccc23)nc2ccccc12` to `O=C(NNCC(O)COc1ccccc1)c1ccccc1` (stereo not shown), the “hERG current change (%, negative = inhibition) at 10uM” value falls from 28.4% to 1.06%.

Going from `CC(C)=C1C(=O)NN(c2ccc(C)c(Cl)c2)C1=O` to `CCOc1ccc(-n2c(C)c(C(C)=O)c3cc(O)ccc32)cc1`, the “hERG current change (%, negative = inhibition) at 10uM” value falls from 27.1% to 4.4%.

Compared with `COc1c(Br)cc([N+](=O)[O-])c(OC)c1C(=O)NC(=O)Nc1nc(C)cc(C)n1`, `COC(=O)c1sccc1NC(=S)OC` is higher in “hERG current change (%, negative = inhibition) at 10uM” value: -22.4% for the first, 7.92% for the second.

Compared with `COc1cccc(NS(=O)(=O)c2ccc3c(c2)NC(=O)C(C)C(=O)N3)c1` (stereo not shown), `COc1ccc(C2CC(=O)c3cnc(N4CCc5ccccc54)nc3C2)c(OC)c1` (stereo not shown) is higher in “hERG current change (%, negative = inhibition) at 10uM” value: 6.5% for the first, 10.8% for the second.

First: CC(C)c1ccc(NC2CCCN(C(=O)CCN3Cc4ccccc4C3=O)C2)cc1 (stereo not shown)
Second: O=C(NCCc1ccccc1Cl)C1CCC(=O)N(Cc2ccc(Cl)cc2)C1 (stereo not shown)
The “hERG current change (%, negative = inhibition) at 10uM” value of the first is higher: -30.5% for the first, -56.8% for the second.

Compared with `CCN(C(=O)C(C)N1C(=O)/C(=C/c2ccco2)SC1=S)C1CCS(=O)(=O)C1` (stereo not shown), `Cc1[nH]c2c(Cl)cccc2c1CCNC(=O)C1CCCCC1C(=O)OCC(F)(F)F` (stereo not shown) is lower in “hERG current change (%, negative = inhibition) at 10uM” value: -19.3% for the first, -29.7% for the second.

Going from `C#CCOCCOCCOCCNc1nc(N2CCN(C(=O)[C@H](CCC(=O)O)n3cc(C(N)Cc4ccc(O)cc4)nn3)CC2)nc(N2CCN(C(=O)[C@H](CCC(=O)O)n3cc(C(N)CC(C)C)nn3)CC2)n1.Cl` (stereo partly shown) to `COc1ccccc1CNC(=O)[C@H](C)NC(=O)C1CCN(C(=O)[C@@H]2CCCN2C(=O)OC(C)(C)C)CC1`, the “hERG current change (%, negative = inhibition) at 10uM” value falls from 10.3% to 1.52%.

First: CCCn1c(SCC(=O)NC2CCC(C)CC2)n[nH]c1=O (stereo not shown)
Second: CCOc1ccc(/C=N/NC(=O)CN2CCCCC2)cc1OCC
The “hERG current change (%, negative = inhibition) at 10uM” value of the first is higher: 19.6% for the first, 11% for the second.

First: Nc1[nH]ncc1-c1ccc(F)cc1
Second: N#CCSc1ccsc1C(=O)Nc1ccc(F)cc1
The “hERG current change (%, negative = inhibition) at 10uM” value of the first is higher: 22.1% for the first, -13.5% for the second.

Going from `CCCOC(=O)c1ccc(O)c(OC)c1` to `CSc1nc(C)cc(OCCO)n1`, the “hERG current change (%, negative = inhibition) at 10uM” value falls from 29.1% to 13%.

Going from `O=S(=O)(c1ccccc1)c1nc(NC2CC2)sc1Cl` to `CCc1ccccc1NC(=S)N1CCCCCC1`, the “hERG current change (%, negative = inhibition) at 10uM” value rises from 7.78% to 15.7%.

First: O=C(NCCc1ccc(C(F)(F)F)cc1)c1ccc(Cl)nc1
Second: COc1ccc(/C=C(\C#N)C(=O)OCC(=O)Nc2ccc(C(C)(C)C)cc2)cc1
The “hERG current change (%, negative = inhibition) at 10uM” value of the first is lower: -4.62% for the first, 0.425% for the second.

For `Oc1ccc(/C=N/Nc2ncc(Br)cn2)c(O)c1`, the “hERG current change (%, negative = inhibition) at 10uM” value was 25%.
